“And” between values parts separate entries of the source, which are not always exact repeats. Equal values may be shown once. The whole screen tested about 410,000 compounds, of which about 5,000 (1.2%) were called active. The shares of active, inactive and inconclusive entries below differ from those in the screen. Calls follow the shape of the dose curve; as a rule, active = well fitted inhibition curve with a large enough effect; inconclusive = small, poorly fitted or top-dose-only effect; inactive = no such curve, though single readings can be large or run the other way. Potencies of inconclusive entries are doubtful fits and often do not repeat.
test: qHTS for Inhibitors of TGF-b; conditions: HepG2 CAGA-GFP TGF-b/SMAD3 reporter, GFP fluorescence, 18 h, TGF-beta stimulated, 500 pg/mL final; series mostly up to 46.1 µM; also: nearly all actives have a fitted effect of over 65% in size
Outline: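 Per well, imaged GFP fluorescence of HEPG2 CAGA-GFP cells gives the signal; cells get compound, then TGF-beta (500 pg/mL final), 18 h at 37 degrees C; %Activity versus -TGF-beta and +DMSO controls.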
Potency is read from the fitted curve at half-maximal effect; tags tell the direction and shape of the fitted curve.

Row | Structure (SMILES) | Potency
1 | CC1C/C(=C/c2ccccn2)C(=O)/C(=C/c2ccccn2)C1 (configuration not stated) | active: 1.26 µM
2 | O=C(COc1ccccc1Cl)Nc1cccc(S(=O)(=O)N2CCCC2)c1 | inactive
3 | O=C(CCSCc1cccc(Cl)c1)NCc1ccccc1Cl | inactive
4 | CC(=O)Nc1ccc(S(=O)(=O)Nc2nnc(C(C)C)s2)cc1 | inactive
5 | CCOC(=O)N1CCN(C(=O)COc2ccc3c(c2)C(=O)CC(C)(C)O3)CC1 | inactive
6 | COc1ccc(-c2[nH]ncc2CN2CCN(c3ccc(F)cc3)CC2)cc1 | inconclusive: 11.2 µM [inhibitor, partial curve]
7 | CCN(CC)c1cc(C)c2cc(NC(=O)/C=C/c3ccccc3Cl)ccc2n1 | inconclusive: 35.5 µM [inhibitor, partial curve, poor fit]
8 | COc1ccc(N2CC(NC(=O)C(=O)c3c[nH]c4ccccc34)CC2=O)cc1 (configuration not stated) | inactive
9 | Cc1[nH]c2ccccc2c1N=Nc1ccc(F)cc1 | inconclusive: 35.5 µM [inhibitor, single point]
10 | CN1OC[C@@H]2CN(Cc3cc(Cl)cc(Cl)c3)[C@H](c3cccc(Br)c3)C[C@@H]21 | inactive
11 | Cc1ccc(-c2nn(-c3ccc(F)cc3F)c3c2cnc2ccc(F)cc23)cc1 | inactive
12 | O=C1C(NS(=O)(=O)c2cccs2)=C(N2CCN(c3cccc(C(F)(F)F)c3)CC2)C(=O)c2ccccc21 | inconclusive: 10 µM [inhibitor, partial curve, poor fit]
13 | CCOC(=O)c1c(NC(=O)CSc2nnc(-c3ccncc3)n2Cc2ccco2)sc(C(C)=O)c1C | inconclusive: 0.316 µM [inhibitor, full curve, poor fit]
14 | Cc1[nH]c2ccccc2c1SCC(=O)NNC(=O)Nc1ccc(OC(F)(F)F)cc1 | inconclusive: 31.6 µM [inhibitor, single point]
15 | O=C(Nc1cccc2cccnc12)c1ccc(Br)cc1Br | inactive
16 | COc1cc(/C=C/C(=O)c2ccc(C)c([N+](=O)[O-])c2)cc(OC)c1O | active: 12.6 µM
17 | O=C(O)c1ccc(NCc2nc3ccccc3n2CCOc2ccccc2Cl)cc1 | inconclusive: 6.31 µM [inhibitor, single point]
18 | Cc1ccc(Nc2nc(CSc3nnc(-c4cccs4)o3)cs2)cc1 | inconclusive: 35.5 µM [inhibitor, single point]
19 | CC(=O)OCC1(C)CN(c2ccccc2)NC1=O (configuration not stated) | inactive
20 | O=C(NCc1ccco1)c1cccc2c1C(=O)c1ccc(N3CCC(Cc4ccccc4)CC3)cc1S2(=O)=O | inactive
21 | CCOc1ccccc1C=NNC(=O)c1cccc2ccccc12 | inactive
22 | Cc1ccc(C)c(NC(=S)NNC(=O)c2cc3c(s2)CCC(C)C3)c1 (configuration not stated) | inconclusive: 35.5 µM [inhibitor, single point]
23 | COc1ccc(OC)c(NC(=O)C2CCN(S(=O)(=O)c3cccs3)CC2)c1 | inconclusive: 22.4 µM [inhibitor, single point]
24 | COc1ccc(C)cc1N(CC(=O)NCCSCc1cccc(Cl)c1)S(C)(=O)=O | inactive

Row | Structure (SMILES) | Potency
25 | Cc1ccc2c(c1)C(=O)C(=O)N2Cc1ccc(OCCC(C)C)cc1 | inconclusive: 3.55 µM [inhibitor, single point]
26 | N#CC1=C(N)SC(N)=C(C#N)C1c1cccc(Oc2ccccc2)c1 | inconclusive: 35.5 µM [inhibitor, single point]
27 | COc1ccc(-c2nc3ccc(Cl)cn3c2Cc2cccc(Cl)c2)cc1OC | inconclusive: 11.2 µM [inhibitor, partial curve, poor fit]
28 | CCCC(=O)Nc1ccc(C(=O)n2nnc3ccccc32)cc1 | inactive
29 | COc1ccc(CC(N)c2csc(Nc3cc(NCCCO)ncn3)n2)cc1 (configuration not stated) | inconclusive: 35.5 µM [inhibitor, single point]
30 | COc1ccc(NS(=O)(=O)c2ccc(C)cc2)c([N+](=O)[O-])c1 | inconclusive: 6.31 µM [inhibitor, single point]
31 | CC1(C(=O)Nc2ccccc2Cc2ccccc2)CCN1CCc1ccccc1 (configuration not stated) | inconclusive: 22.4 µM [inhibitor, single point]
32 | CC(C)CCNC(=O)C1CCN(c2nnc(-n3cccc3)s2)CC1 | inconclusive: 35.5 µM [inhibitor, partial curve, poor fit]
33 | CCCC(=O)Nc1sc2c(c1C#N)CCCC2 | inactive
34 | FC(F)(F)c1ccccc1Cc1c(-c2cccc(Br)c2)nc2c3ccccc3ccn12 | inconclusive: 28.2 µM [inhibitor, single point]
35 | C/C(=N\OCC(=O)Nn1c(=O)[nH]c2ccccc2c1=O)c1ccccc1 | inconclusive: 3.16 µM [inhibitor, single point]
36 | COc1cc(/C=C(/NC(=O)c2ccccc2Cl)C(=O)O)cc(OC)c1OC | inconclusive: 17.8 µM [inhibitor, single point]
37 | CCNC(=O)c1ccc(CSc2nc3ccccc3s2)cc1 | inactive
38 | Cc1ccc(NC(=O)Cn2c(=O)n(CC3CCC(C(=O)NC(C)C)CC3)c(=O)c3sccc32)cc1 (configuration not stated) | inactive
39 | COc1ccc2c(c1)OCC(O)(c1ccccc1)C2=O (configuration not stated) | inactive
40 | N#Cc1c(NC(=O)CCC(=O)O)sc2c1CCCC2 | inactive
41 | O=C(Cc1ccc(Cl)cc1)Nc1ncc([N+](=O)[O-])s1 | inactive
42 | OC(COCc1cccs1)CN1CCN(c2ccccn2)CC1 (configuration not stated) | inactive
43 | C=C1c2cc(OC)ccc2NC(=O)N1CC | inactive
44 | CCC(NC(=O)c1cc(COc2ccc(Cl)cc2OC)on1)c1ccncc1 (configuration not stated) | inactive
45 | COc1cc2c(cc1OC)C(C)N(C(=O)c1c(C)noc1C)CC2 (configuration not stated) | inactive
46 | COc1cccc(CNC(=O)COc2cccc3c2OC(C)(C)C3)c1 | inactive
47 | Cc1cccnc1NC(=O)c1ccc([N+](=O)[O-])o1 | inconclusive: 14.1 µM [inhibitor, partial curve, poor fit]
48 | Cc1[nH]c(=O)nc(SCc2ccc(Cl)c(Cl)c2)c1C#N | inconclusive: 0.112 µM [inhibitor, full curve, poor fit]

Row | Structure (SMILES) | Potency
49 | Cc1ccc(NS(=O)(=O)c2cc3c4c(cccc4c2)C(=O)NC3=O)cc1C | inconclusive: 22.4 µM [inhibitor, partial curve, poor fit]
50 | COc1ccc(NS(=O)(=O)c2cccc(C(=O)NNC(=O)c3ccc(Br)o3)c2)cc1 | inconclusive: 22.4 µM [inhibitor, single point]
51 | COCC(C)n1c(-c2ccc3c(c2)NC(=O)CO3)csc1=Nc1ccc(OC(F)F)cc1 (configuration not stated) | inconclusive: 22.4 µM [inhibitor, single point] and inconclusive: 35.5 µM [inhibitor, single point]
52 | COc1cc2cc(/C=C/C(=O)c3ccco3)c(Cl)nc2cc1OC | inconclusive: 7.08 µM [inhibitor, partial curve]
53 | O=C(O)CC(NNC(=O)c1ccccc1)C(=O)Nc1ccc([N+](=O)[O-])cc1 (configuration not stated) | inactive
54 | COc1ccc(S(=O)(=O)c2c(O)c(C)cc(NS(=O)(=O)c3ccc(Cl)cc3)c2C(C)C)cc1 | inconclusive: 2.82 µM [inhibitor, full curve, poor fit]
55 | Cc1cccc(N(C)S(=O)(=O)c2ccc(-c3cc(C)no3)s2)c1 | active: 11.2 µM
56 | COc1ccc(/C=N/NC(=O)c2ccc3nc[nH]c3c2)c(OC)c1 | inactive
57 | Cc1ccc(S(=O)(=O)N2CCc3cc(C(=O)N(C)Cc4ccccc4)ccc32)cc1 | inconclusive: 10 µM [inhibitor, partial curve, poor fit]
58 | Nc1nn(-c2ccccc2)c(N)c1N=Nc1ccccc1 | inconclusive: 10 µM [inhibitor, partial curve, poor fit]
59 | CC(=O)N1CCc2c(sc3c2c(=O)n(-c2ccc(F)cc2)c(=O)n3Cc2cc(C)ccc2C)C1 | inactive
60 | Cc1nc2ncnn2c(C)c1CCC(=O)NCCC1=CCCCC1 | inconclusive: 11.2 µM [inhibitor, partial curve]
61 | O=C1C2C(c3ccccc3)(C(=O)N1c1ccc(Cl)cc1)C2(c1ccccc1)c1ccccc1 (configuration not stated) | inconclusive: 4.47 µM [inhibitor, full curve, poor fit]
62 | CCCCC1=CC2=C(c3ccco3)C(=O)C(C)(OC(=O)c3ccc(OC)cc3)C(=O)C2=CN1CCc1ccccn1 (configuration not stated) | inconclusive: 35.5 µM [inhibitor, single point]
63 | Cc1ccccc1-n1c(SCC(=O)Nc2ccc(Cl)cc2Cl)nc(O)cc1=O | inactive
64 | NC(=O)[C@H]1CC2(CC(c3cccc(NC(=O)CC(c4ccccc4)c4ccccc4)c3)=NO2)CN1C(=O)C(c1ccccc1)c1ccccc1 (some centres not stated) | inconclusive: 11.2 µM [inhibitor, single point]
65 | Cc1ccccc1OCC(O)Cn1c(=N)n(Cc2ccccc2)c2ccccc21 (configuration not stated) | active: 7.08 µM
66 | O=C(NCCc1csc(-c2ccccc2)n1)c1ccccc1F | inconclusive: 35.5 µM [inhibitor, single point]
67 | CC(=O)Nc1cccc(NC(=O)CSc2ncc(-c3ccc(Cl)cc3)n2Cc2ccco2)c1 | inactive
68 | CC(C)CC(N)c1csc(Nc2cc(Oc3ccccc3)ncn2)n1 (configuration not stated) | inconclusive: 22.4 µM [inhibitor, single point]
69 | Cc1nc(SCc2ccccc2Cl)c(C#N)c(C)c1C | inconclusive: 10 µM [inhibitor, partial curve, poor fit]
70 | CC#CC(=O)N1CCC(CCC(=O)N(C)Cc2ccccc2)CC1 | inactive
71 | COc1cc(COc2ccc3c(C)c(Cc4ccccc4)c(=O)oc3c2C)cc(OC)c1OC | inactive
72 | CC1=NN(c2ccccc2)C(=O)/C1=C/c1ccc(Cl)cc1 | inconclusive: 3.16 µM [inhibitor, partial curve, poor fit]

Reference: PubChem BioAssay AID588855 (National Center for Advancing Translational Sciences (NCATS), 2011)
